In PubChem BioAssay AID493208 (National Center for Advancing Translational Sciences (NCATS), 2011):
The whole screen tested about 44,000 compounds, of which about 340 (0.77%) were called active. Roughly 5% stayed inconclusive and do not appear here. Calls come from the whole dose curve; as a rule, active = well fitted inhibition curve with a large enough effect; inconclusive = small, poorly fitted or top-dose-only effect; inactive = flat fitted curve, though single readings scatter. Some of the results follow.

assay: Acumen qHTS Assay for Inhibitors of the mTORC1 Signaling Pathway in MEF (Tsc2-/-, p53-/-) Cells: Sytravon; settings: phospho-rpS6 immunofluorescence/PI, 24 h; series mostly up to 38.3 µM; activity change, negative = inhibition: at the top concentration;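 note: plate controls were DMSO for no effect and rapamycin for full effect; nearly all actives have a fitted effect of over 50% in size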
Outline: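 Readout is phospho-S6 Alexa 488 signal normalized to PI per well, reported as % active cells with thresholds set from rapamycin (7.5 nM) and DMSO controls. Cells: Tsc2-/-, p53-/- MEFs, 24 hrs compound at 37 C; PI cell number serves as viability.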

Activity change, negative = inhibition, inactive:
COc1ccc(-c2cc(-c3ccc4c(c3)NC(=O)CO4)nc3c2COc2ccc(C)cc2-3)cc1 -0.641%
COc1ccc(-n2ncc(C(=O)NCCCN3CCCCC3)c2C2CCN(C(=O)OC(C)(C)C)CC2)cc1 -6.29%
Cc1c(NC(=O)C(F)(F)F)ccc2nc3c(=O)n(C)c(=O)n(C)c3nc12 -21.8%
Cc1cccc(OCCOCCn2c(-c3ccc(Cl)cc3)nc3ccccc3c2=O)c1C -25.2%
Cc1ccccc1NC(=O)c1ccc(F)c(S(=O)(=O)N2CCc3ccccc3C2)c1 13.1%
COC(=O)Cn1ccc2cc(S(=O)(=O)N3CCCCC3)ccc21 -2.55%
Cc1cc(C)c(S(=O)(=O)N2CCC(N3CCN(Cc4ccc(F)cc4)C(=O)C3=O)CC2)c(C)c1 0%
CC(C)c1ccc(NC(=O)c2cnn3c(C(F)F)cc(-c4ccccc4)nc23)cc1 -2.02%
Cc1ccc(C(C)C)c(OCCCn2c(=O)oc3ccc(C)cc32)c1 -12.2%
Cc1ccc(C)c(N2CCN(C(=O)C3CCC(CNS(=O)(=O)c4ccc(Br)s4)CC3)CC2)c1 (stereo unspecified) -1.32%
O=C(O)COc1ccccc1C1Nc2ccccc2-c2nnc(SCc3ccc(Cl)cc3)nc2O1 (stereo unspecified) -2.54%
COc1cccc(NC(=O)Cn2c(=O)n(CCCCC(=O)NCc3ccc4c(c3)OCO4)c(=O)c3ccccc32)c1 -12%
CCCS(=O)(=O)N1CC(=O)N(c2cc(C)cc(C)c2)C(C)(C(=O)NC2CCCCCC2)C1 (stereo unspecified) -0.605%
N#Cc1ccc(NC(=O)c2ccc3c(c2)nnn3C2CCCC2)cc1 11%
CCOC(=O)N1CCC(NC(=O)c2cnn(-c3ccc(C)cc3)c2C2CCN(C(=O)OC(C)(C)C)CC2)CC1 -2.28%
COc1ccc(Nc2oc(-c3ccc(COc4ccccc4)o3)nc2C#N)cc1 -7.26%
CCOc1ccccc1C(=O)Nc1cc(-c2nc3cccnc3s2)ccc1C -3.15%
Oc1cccc(Nc2cc(-c3ccccc3)ncn2)c1 -0.775%
CC(C)(C)C(=O)Nc1ccc2nc(SCCOc3ccccc3Cl)sc2c1 -23.1%
Cc1cccc(NC(=O)CN2C(=O)CC(c3ccccc3)Sc3ccccc32)c1 (stereo unspecified) -3.12%
Cc1ccccc1NC(=O)Cn1nnc(C(=O)NCc2cccs2)c1N -9.37%
Cc1ccc(NC(=O)CCc2c(C)nc3ncnn3c2C)cc1Cl -11.8%
Cc1ccc(CSc2nc3cc(C(=O)NC4CCCC4)ccc3c(=O)n2Cc2ccccc2)cc1 0.664%
CCc1ccc(NS(=O)(=O)c2ccc(NC(=O)N3CCCC3)cc2)cc1 1.45%
Cc1ccc(C)c(CSc2cn(CCNC(=O)c3cccs3)c3ccccc23)c1 6.55%
CCc1ccc(NC(=O)Cn2nnc(C(=O)Nc3ccc(F)cc3)c2N)cc1 1.88%
O=C(Nc1cccc(O)c1)c1cc(-c2ccccc2F)no1 -1.13%
CC(CNC(=O)c1csc2c1CCCCC2)c1ccccc1 (stereo unspecified) -9.01%
COc1ccc(CCN2C(=O)N(c3ccc(C)cc3)C(=O)C2CC(=O)Nc2ccc(OC)cc2)cc1 (stereo unspecified) -0.536%
O=C(NCc1cccc(Cl)c1)c1ccc2c(Cl)c3c(nc2c1)CCCC3 -13.4%
CCOC(=O)C1CCCN(C(=O)Cn2ncc3c4ccccc4n(C)c3c2=O)C1 (stereo unspecified) -1.97%
COc1cc(NC(=O)c2cc(S(=O)(=O)N3CCC(C)CC3)cn2C)cc(OC)c1OC -6.04%
COc1cc(O)ccc1-c1nc2cc(C)ccn2c1Nc1ccccc1C 0.291%
O=C(CSc1ncc(CO)n1Cc1ccc(F)cc1)NCc1ccco1 -3.03%
Cc1cccc2c(=O)cc(CSc3ccccc3NC(=O)c3cccc(Br)c3)[nH]c12 0.295%
CCc1ccc(S(=O)(=O)Nc2cccc(-c3ccc(OC)nn3)c2)s1 -0.892%
COc1ccc(NC(=O)CSc2nc3nc(C)cc(C)n3n2)cc1OC 12.8%
CCOc1ccccc1NC(=O)NCc1noc2ccc(C)cc12 -16.2%
COc1cc(C(=O)NCC(c2ccc3c(c2)OCO3)N2CCN(C)CC2)cc(OC)c1OC (stereo unspecified) -15.4%
COc1cccc2c1cc1c(=O)n(CC(=O)NCc3ccc(N(C)C)cc3)nc(C)n12 3.66%
CC(C)c1ccc2oc(-c3cc(NC(=O)c4cccnc4)ccc3Cl)nc2c1 -13.2%
Cc1ccc(N2CC(C(=O)NCc3nnnn3-c3ccc(C)c(C)c3)CC2=O)cc1C (stereo unspecified) 1.86%
O=c1n(Cc2ccc(Cl)cc2)nc2n1-c1ccccc1OC2 -27.4%
COc1cccc(NC(=O)c2sc3nc(C)c(C(=O)Nc4ccc(C)cc4C)c(-c4ccc(C)o4)c3c2N)c1 -14.8%
O=C(CSc1nc2ccccc2nc1Cc1ccc(Cl)cc1)N1CCN(c2ccccc2F)CC1 -4.23%
Cc1ccccc1OCC(=O)Nc1ccc2nc(SCCOc3ccccc3)sc2c1 0.0686%
Cc1ccc(C)c(N2CCN(C(=O)CCCCCn3c(=O)[nH]c4ccccc4c3=O)CC2)c1 -5.3%
Cc1ccc(C)c(Cn2c(SCC(=O)N(C)Cc3ccccc3)nc3ccccc32)c1 8.56%
CCOc1ccc(-c2cc(C(=O)N3CCN(c4cccc(C)c4)C(C)C3)c3ccccc3n2)cc1 (stereo unspecified) 0%
CCc1ccccc1NC(=O)C(=O)NCC(c1cccnc1)N1CCc2ccccc21 (stereo unspecified) 13%
Cc1ccc(-c2nnc(Nc3ccc(S(N)(=O)=O)cc3)c3ccccc23)cc1S(=O)(=O)N1CCOCC1 12.4%
CC(NC(=O)c1cccc(NC(=O)c2nsc3ccccc23)c1)c1ccccc1 (stereo unspecified) 0%
COc1ccc2c(c1)Cc1sc(NC(=O)c3cccc(F)c3)nc1-2 -1.95%
CCCC(=O)Nc1cc(-c2nc3cccnc3s2)ccc1C -10.9%
CCc1cccc(NC(c2nnc(-c3ccccc3)o2)c2ccc(F)cc2Cl)c1 (stereo unspecified) -29.7%
CCOC(=O)c1ccc(NC(=O)C2CC(=O)N(c3ccc(C(C)C)cc3)C2)cc1 (stereo unspecified) 1.19%
COc1ccc(C(=O)Nc2ccc3oc(-c4ccc(OC)cc4)nc3c2)cc1 -9.43%
Cc1cccc(NC(=O)CCNS(=O)(=O)c2cccc3nonc23)c1 -19.3%
CC(=O)Nc1ccc(S(=O)(=O)NC2(C(F)(F)F)C(=O)Nc3c2c(=O)[nH]c(=O)n3-c2ccc(C)c(C)c2)cc1 (stereo unspecified) -1.53%
CCOc1ccc(C(=O)c2cn(Cc3ccc(OC)cc3)c3cc(OC)c(OC)cc3c2=O)cc1 -8.59%
CCOc1ccc(NS(=O)(=O)c2ccc3[nH]cc(C(=O)NC4CCCC4)c(=O)c3c2)cc1 0.712%
